The supplement of paper PMC8728848
Some of the results follow.

How the values were obtained:
Test in all cases: glycan array binding signal (z-score within array); higher = stronger binding
Conditions in all cases: glycan notation: IUPAC condensed, linker removed
[1] = target: Neu5Ac(a2-3)Gal(b1-3)GlcNAc(b1-2)Man(a1-3)[GlcNAc(b1-4)][Neu5Ac(a2-3)Gal(b1-3)GlcNAc(b1-2)Man(a1-6)]Man(b1-4)GlcNAc(b1-4)GlcNAc
Procedure, shortened: (§1)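 Glycan array data came from 3228 arrays in the Consortium for Functional Glycomics database, and only arrays with an available protein sequence were kept. Glycan names were put into IUPAC-condensed notation, and columns mapping to the same glycan were averaged. The binding signal is a within-array Z-score, averaged across arrays of one protein sequence run at different concentrations or buffers and across linkers. A negative Z-score can be read as non-binding.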

[2] = target: Neu5Ac(a2-3)Gal(b1-3)GlcNAc(b1-2)Man(a1-3)[Neu5Ac(a2-3)Gal(b1-3)GlcNAc(b1-2)Man(a1-6)]Man(b1-4)GlcNAc(b1-4)GlcNAc
Procedure, shortened: as §1

[3] = target: Neu5Ac(a2-3)Gal(b1-3)GlcNAc(b1-3)Gal(b1-3)GlcNAc
Procedure, shortened: as §1

[4] = target: Neu5Ac(a2-3)Gal(b1-3)GlcNAc(b1-3)Gal(b1-4)GlcNAc
Procedure, shortened: as §1

[5] = target: Neu5Ac(a2-3)Gal(b1-3)GlcNAc(b1-3)GalNAc
Procedure, shortened: as §1

[6] = target: Neu5Ac(a2-3)Gal(b1-3)GlcNAc(b1-4)Gal(b1-4)Glc
Procedure, shortened: as §1

[7] = target: Neu5Ac(a2-3)Gal(b1-3)GlcNAc(b1-6)GalNAc
Procedure, shortened: as §1

[8] = target: Neu5Ac(a2-3)Gal(b1-3)GlcNAc6S
Procedure, shortened: as §1

[9] = target: Neu5Ac(a2-3)Gal(b1-3)[Fuc(a1-4)]GlcNAc
Procedure, shortened: as §1

[10] = target: Neu5Ac(a2-3)Gal(b1-3)[Fuc(a1-4)]GlcNAc(b1-3)Gal(b1-3)[Fuc(a1-4)]GlcNAc
Procedure, shortened: as §1

[11] = target: Neu5Ac(a2-3)Gal(b1-3)[Fuc(a1-4)]GlcNAc(b1-3)Gal(b1-4)[Fuc(a1-3)]GlcNAc
Procedure, shortened: as §1

[12] = target: Neu5Ac(a2-3)Gal(b1-3)[GlcNAc(b1-6)]GalNAc
Procedure, shortened: as §1

[13] = target: Neu5Ac(a2-3)Gal(b1-3)[Neu5Ac(a2-6)]GalNAc
Procedure, shortened: as §1

[14] = target: Neu5Ac(a2-3)Gal(b1-3)[Neu5Ac(a2-6)]GlcNAc(b1-3)[Fuc(a1-3)[Gal(b1-4)]GlcNAc(b1-6)]Gal(b1-4)Glc
Procedure, shortened: as §1

[15] = target: Neu5Ac(a2-3)Gal(b1-3)]Neu5Ac(a2-3)Gal(b1-4)]GlcNAc
Procedure, shortened: as §1

[16] = target: Neu5Ac(a2-3)Gal(b1-4)Glc
Procedure, shortened: as §1

[17] = target: Neu5Ac(a2-3)Gal(b1-4)GlcNAc
Procedure, shortened: as §1

[18] = target: Neu5Ac(a2-3)Gal(b1-4)GlcNAc(b1-2)Man
Procedure, shortened: as §1

[19] = target: Neu5Ac(a2-3)Gal(b1-4)GlcNAc(b1-2)Man(a1-3)[GlcNAc(b1-4)][Neu5Ac(a2-3)Gal(b1-4)GlcNAc(b1-2)Man(a1-6)]Man(b1-4)GlcNAc(b1-4)GlcNAc
Procedure, shortened: as §1

[20] = target: Neu5Ac(a2-3)Gal(b1-4)GlcNAc(b1-2)Man(a1-3)[Neu5Ac(a2-3)Gal(b1-4)GlcNAc(b1-2)Man(a1-6)]Man(b1-4)GlcNAc(b1-4)GlcNAc
Procedure, shortened: as §1

[21] = target: Neu5Ac(a2-3)Gal(b1-4)GlcNAc(b1-2)Man(a1-3)[Neu5Ac(a2-3)Gal(b1-4)GlcNAc(b1-2)Man(a1-6)]Man(b1-4)GlcNAc(b1-4)[Fuc(a1-6)]GlcNAc
Procedure, shortened: as §1

[22] = target: Neu5Ac(a2-3)Gal(b1-4)GlcNAc(b1-2)Man(a1-3)[Neu5Ac(a2-6)Gal(b1-4)GlcNAc(b1-2)Man(a1-6)]Man(b1-4)GlcNAc(b1-4)GlcNAc
Procedure, shortened: as §1

[23] = target: Neu5Ac(a2-3)Gal(b1-4)GlcNAc(b1-2)[Neu5Ac(a2-3)Gal(b1-4)GlcNAc(b1-4)]Man(a1-3)[GlcNAc(b1-4)][Neu5Ac(a2-3)Gal(b1-4)GlcNAc(b1-2)[Neu5Ac(a2-3)Gal(b1-4)GlcNAc(b1-6)]Man(a1-6)]Man(b1-4)GlcNAc(b1-4)GlcNAc
Procedure, shortened: as §1

[24] = target: Neu5Ac(a2-3)Gal(b1-4)GlcNAc(b1-2)[Neu5Ac(a2-3)Gal(b1-4)GlcNAc(b1-4)]Man(a1-3)[GlcNAc(b1-4)][Neu5Ac(a2-3)Gal(b1-4)GlcNAc(b1-4)Man(a1-6)]Man(b1-4)GlcNAc(b1-4)GlcNAc
Procedure, shortened: as §1

[25] = target: Neu5Ac(a2-3)Gal(b1-4)GlcNAc(b1-2)[Neu5Ac(a2-3)Gal(b1-4)GlcNAc(b1-6)]Man(a1-6)[Neu5Ac(a2-3)Gal(b1-4)GlcNAc(b1-2)Man(a1-3)]Man(b1-4)GlcNAc(b1-4)GlcNAc
Procedure, shortened: as §1

[26] = target: Neu5Ac(a2-3)Gal(b1-4)GlcNAc(b1-2)[Neu5Ac(a2-3)Gal(b1-4)GlcNAc(b1-6)]Man(a1-6)[Neu5Ac(a2-3)Gal(b1-4)GlcNAc(b1-2)Man(a1-3)][GlcNAc(b1-4)]Man(b1-4)GlcNAc(b1-4)GlcNAc
Procedure, shortened: as §1

[27] = target: Neu5Ac(a2-3)Gal(b1-4)GlcNAc(b1-3)Gal
Procedure, shortened: as §1

[28] = target: Neu5Ac(a2-3)Gal(b1-4)GlcNAc(b1-3)Gal(b1-3)GlcNAc
Procedure, shortened: as §1

[29] = target: Neu5Ac(a2-3)Gal(b1-4)GlcNAc(b1-3)Gal(b1-4)GlcNAc
Procedure, shortened: as §1

[30] = target: Neu5Ac(a2-3)Gal(b1-4)GlcNAc(b1-3)Gal(b1-4)GlcNAc(b1-2)Man(a1-3)[Neu5Ac(a2-3)Gal(b1-4)GlcNAc(b1-3)Gal(b1-4)GlcNAc(b1-2)Man(a1-6)]Man(b1-4)GlcNAc(b1-4)GlcNAc
Procedure, shortened: as §1

[31] = target: Neu5Ac(a2-3)Gal(b1-4)GlcNAc(b1-3)Gal(b1-4)GlcNAc(b1-3)Gal(b1-4)GlcNAc
Procedure, shortened: as §1

[32] = target: Neu5Ac(a2-3)Gal(b1-4)GlcNAc(b1-3)Gal(b1-4)GlcNAc(b1-3)Gal(b1-4)GlcNAc(b1-2)Man(a1-3)[Neu5Ac(a2-3)Gal(b1-4)GlcNAc(b1-3)Gal(b1-4)GlcNAc(b1-3)Gal(b1-4)GlcNAc(b1-2)Man(a1-6)]GalNAc
Procedure, shortened: as §1

[33] = target: Neu5Ac(a2-3)Gal(b1-4)GlcNAc(b1-3)Gal(b1-4)GlcNAc(b1-3)GalNAc
Procedure, shortened: as §1

[34] = target: Neu5Ac(a2-3)Gal(b1-4)GlcNAc(b1-3)Gal(b1-4)GlcNAc(b1-3)[Neu5Ac(a2-3)Gal(b1-4)GlcNAc(b1-3)Gal(b1-4)GlcNAc(b1-6)]GalNAc
Procedure, shortened: as §1

[35] = target: Neu5Ac(a2-3)Gal(b1-4)GlcNAc(b1-3)Gal(b1-4)GlcNAc(b1-6)[Gal(b1-3)]GalNAc
Procedure, shortened: as §1

[36] = target: Neu5Ac(a2-3)Gal(b1-4)GlcNAc(b1-3)Gal(b1-4)[Fuc(a1-3)]GlcNAc
Procedure, shortened: as §1

[37] = target: Neu5Ac(a2-3)Gal(b1-4)GlcNAc(b1-3)GalNAc
Procedure, shortened: as §1

[38] = target: Neu5Ac(a2-3)Gal(b1-4)GlcNAc(b1-3)[Neu5Ac(a2-3)Gal(b1-4)GlcNAc(b1-6)]GalNAc
Procedure, shortened: as §1

B1: Clec18C (Homo sapiens) (protein)
chain: MLHPETSPGRGHLLAVLLALLGTAWAEVWPPQLQEQAPMAGALNRKESFLLLSLHNRLRSWVQPPAADMRRLDWSDSLAQLAQARAALCGTPTPSLASGLWRTLQVGWNMQLLPAGLVSFVEVVSLWFAEGQRYSHAAGECARNATCTHYTQLVWATSSQLGCGRHLCSAGQAAIEAFVCAYSPRGNWEVNGKTIVPYKKGAWCSLCTASVSGCFKAWDHAGGLCEVPRNPCRMSCQNHGRLNISTCHCHCPPGYTGRYCQVRCSLQCVHGRLREEECSCVCDIGYGGAQCATKVHFPFHTCDLRIDGDCFMVSSEADTYYRARMKCQRKGGVLAQIKSQKVQDILAFYLGRLETTNEVIDSDFETRNFWIGLTYKTAKDSFRWATGEHQAFTSFAFGQPDNHGFGNCVELQASAAFNWNNQRCKTRNRYICQFAQEHISRWGPGS
glycan array binding signal (z-score) [1]: -0.44 | glycan array binding signal (z-score) [2]: 0.252 | glycan array binding signal (z-score) [3]: -0.592 | glycan array binding signal (z-score) [4]: -0.523 | glycan array binding signal (z-score) [5]: -0.458 | glycan array binding signal (z-score) [6]: -0.572 | glycan array binding signal (z-score) [7]: -0.247 | glycan array binding signal (z-score) [8]: -0.575 | glycan array binding signal (z-score) [9]: -0.506 | glycan array binding signal (z-score) [10]: -0.491 | glycan array binding signal (z-score) [11]: -0.276 | glycan array binding signal (z-score) [12]: -0.642 | glycan array binding signal (z-score) [13]: -0.524 | glycan array binding signal (z-score) [14]: -0.021 | glycan array binding signal (z-score) [15]: -0.528 | glycan array binding signal (z-score) [16]: -0.357 | glycan array binding signal (z-score) [17]: -0.498 | glycan array binding signal (z-score) [18]: -0.08 | glycan array binding signal (z-score) [19]: -0.554 | glycan array binding signal (z-score) [20]: -0.489 | glycan array binding signal (z-score) [21]: -0.616 | glycan array binding signal (z-score) [22]: 1.13 | glycan array binding signal (z-score) [23]: -0.577 | glycan array binding signal (z-score) [24]: -0.516 | glycan array binding signal (z-score) [25]: -0.29 | glycan array binding signal (z-score) [26]: -0.556 | glycan array binding signal (z-score) [27]: -0.482 | glycan array binding signal (z-score) [28]: -0.542 | glycan array binding signal (z-score) [29]: -0.529 | glycan array binding signal (z-score) [30]: -0.065 | glycan array binding signal (z-score) [31]: -0.457 | glycan array binding signal (z-score) [32]: -0.015 | glycan array binding signal (z-score) [33]: -0.604 | glycan array binding signal (z-score) [34]: -0.025 | glycan array binding signal (z-score) [35]: 0.388 | glycan array binding signal (z-score) [36]: -0.596 | glycan array binding signal (z-score) [37]: -0.608 | glycan array binding signal (z-score) [38]: -0.439
